The structures appear in SMILES notation.

Here are results for 44 compounds from patent US20260200947A1, “FUSED CYCLIC COMPOUNDS AND USE THEREOF” (Jacobio Pharmaceuticals Co., Ltd., priority 2022, published 2026).

Experiment [1] deals with GDP-KRAS G12D (Homo sapiens, UniProt P01116, G12D). Briefly: biochemical.
Experiment [2] addresses GDP-KRAS G12V (Homo sapiens, UniProt P01116, G12V). Put plainly: biochemical.

Regarding `C#Cc1c(F)ccc2cc(N)cc(-c3nc4c5c(nc(OC[C@@]67CCCN6C[C@H](F)C7)nc5c3F)N3CCC=CCC3N4C)c12` (stereo partly shown) [Compound 72], the half-inhibitory concentration (IC50) (commonly the concentration at which inhibition is half-maximal) is 3.17 nM in experiment [1] and 3.5 nM in experiment [2].
Turning to `C#Cc1c(F)ccc2cc(N)cc(-c3nc4c5c(nc(OC[C@@]67CCCN6C[C@H](F)C7)nc5c3F)N3CC[C@H](F)CC[C@H]3N4C)c12` [Compound 83], the IC50 in experiment [1] stood at 0.712 nM; in experiment [2], 1.45 nM.
Taken in the same sequence, the figures for `C[C@H]1CCOC[C@H]2N(C)c3nc(-c4cc(N)cc5ccc(F)c(Cl)c45)c(F)c4nc(OC[C@@]56CCCN5C[C@H](F)C6)nc(c34)N12` [Compound 120] were 1.96 nM and 1.98 nM.
Taken in the same sequence, the figures for `C#Cc1c(F)ccc2cc(N)cc(-c3nc4c5c(nc(OC[C@@]67CCCN6C[C@H](F)C7)nc5c3F)N3CCCC[C@@H](O)[C@H]3N4C)c12` [Compound 110] were 2.87 nM and 2.97 nM.
For the compound `C#Cc1c(F)ccc2cc(N)cc(-c3nc4c5c(nc(OC[C@@]67CCCN6C[C@H](F)C7)nc5c3F)N3CC[C@@H](O)CC[C@H]3N4C)c12` [Compound 84], the results for the half-inhibitory concentration (IC50) in experiment [1] and in experiment [2] were 5.29 nM and 2.59 nM, respectively.
Taken in the same sequence, the figures for `C#Cc1c(F)c(F)cc2cc(N)cc(-c3nc4c5c(nc(OC[C@@]67CCCN6C[C@H](F)C7)nc5c3F)N3CCCOC[C@H]3CO4)c12` [Compound 8] were 1.03 nM and 0.55 nM.
Taken in the same sequence, the figures for `C#Cc1c(F)ccc2cc(N)cc(-c3nc4c5c(nc(O[C@@H](C)[C@@H]6[C@@H](OC)CCN6C)nc5c3F)N3CCCOC[C@H]3N4C)c12` [Compound 162] were 8.8 nM and 5.73 nM.
Taken in the same sequence, the figures for `C#Cc1c(F)ccc2cc(N)cc(-c3nc4c5c(nc(OC[C@@]67CCCN6C[C@H](F)C7)nc5c3F)N3CCOCC3CC4=C)c12` (stereo partly shown) [Compound 22] were 6.97 nM and 5.16 nM.
Turning to `C#Cc1c(F)ccc2cc(N)cc(-c3nc4c5c(nc(OC[C@@]67CCCN6C[C@H](F)C7)nc5c3F)N3CCOCC3N4C3CC3)c12` (stereo partly shown) [Compound 96], the 50% inhibitory concentration (IC50) in experiment [1] came to 18.7 nM; in experiment [2], 10.2 nM.
Taken in the same sequence, the figures for `C#Cc1c(F)ccc2cc(N)cc(-c3nc4c5c(nc(OC[C@@]67CCCN6C[C@H](F)C7)nc5c3F)N3CC(CC#N)COCC3N4C)c12` (stereo partly shown) [Compound 126] were 5.04 nM and 5.45 nM.
Taken in the same sequence, the figures for `[2H][C@]1(F)CCCCN2c3nc(OC[C@@]45CCCN4C[C@H](F)C5)nc4c(F)c(-c5cc(N)cc6ccc(F)c(C#C)c56)nc(c34)N(C)[C@@H]21` [Compound 95] were 0.561 nM and 0.727 nM.
As to `C#Cc1c(F)ccc2cc(O)cc(-c3nc4c5c(nc(OC[C@@]67CCCN6C[C@H](F)C7)nc5c3F)N3CCOCC3C4=C)c12` (stereo partly shown) [Compound 12], the results for the IC50 in experiment [1] and in experiment [2] were 12.8 nM and 5.57 nM, respectively.
Consider `C#Cc1c(F)ccc2cc(N)cc(-c3nc4c5c(nc(OC[C@@]67CCCN6C[C@H](F)C7)nc5c3F)N3[C@@H](C)CCO[C@H](C)[C@H]3N4C)c12` [Compound 122], for which the IC50 in experiment [1] was determined as 2.68 nM; in experiment [2], 1.39 nM.
Taken in the same sequence, the figures for `C#Cc1c(F)ccc2cc(N)cc(-c3nc4c5c(nc(OC[C@]67CC(=C)CN6C[C@@H](OC)C7)nc5c3F)N3CCCOC[C@H]3N4C)c12` [Compound 170] were 8.14 nM and 2.03 nM.
Regarding `C#Cc1c(F)ccc2cc(N)cc(-c3nc4c5c(nc(OC[C@@]67CCCN6C[C@H](F)C7)nc5c3F)N3CCCCOC3N4C)c12` (stereo partly shown) [Compound 70], the half-maximal inhibitory concentration (IC50) amounted to 2.07 nM in experiment [1] and 1.9 nM in experiment [2].
Taken in the same sequence, the figures for `C#Cc1c(F)ccc2cc(N)cc(-c3nc4c5c(nc(OCC67CC(=C)CN6C[C@H](F)C7)nc5c3F)N3CCCOC[C@H]3CO4)c12` (stereo partly shown) [Compound 13] were 1.21 nM and 0.978 nM.
Taken in the same sequence, the figures for `C#Cc1c(F)ccc2cc(N)cc(-c3nc4c5c(nc(OC[C@@]67CCCN6C[C@H](F)C7)nc5c3F)N3CC(F)(F)COC[C@H]3CO4)c12` [Compound 19] were 0.746 nM and 0.534 nM.
Taken in the same sequence, the figures for `C#Cc1c(F)ccc2cc(N)cc(-c3nc4c5c(nc(OC[C@@]67CCCN6C[C@H](F)C7)nc5c3F)N3CCC(F)CC(F)C3N4C)c12` (stereo partly shown) [Compound 115] were 2.56 nM and 3.55 nM.
For `C#Cc1c(F)ccc2cc(O)cc(-c3nc4c5c(nc(OC[C@@]67CCCN6C[C@H](F)C7)nc5c3F)N3CCC=CC[C@H]3CO4)c12` [Compound 63], the concentration for half-maximal inhibition (IC50) in experiment [1] was determined as 0.839 nM; in experiment [2], 0.769 nM.
Taken in the same sequence, the figures for `C#Cc1c(F)ccc2cc(N)cc(-c3nc4c5c(nc(OCC67CC(C)CN6C[C@H](F)C7)nc5c3F)N3CCCOC[C@H]3CO4)c12` (stereo partly shown) [Compound 32] were 3.69 nM and 2.1 nM.
Consider `C#Cc1c(F)ccc2cc(N)cc(-c3nc4c5c(nc(OC[C@@]67CCCN6C[C@H](F)C7)nc5c3F)N3CC=CCCC3N4C)c12` (stereo partly shown) [Compound 99], for which the figures for the IC50 in experiment [1] and in experiment [2] were 7.13 nM and 3.48 nM, respectively.
Taken in the same sequence, the figures for `C[C@H]1CCOC[C@H]2N(C)c3nc(-c4cc(O)cc5ccc(F)c(F)c45)c(F)c4nc(OC[C@@]56CCCN5C[C@H](F)C6)nc(c34)N12` [Compound 73] were 1.49 nM and 1.02 nM.
With `C#Cc1c(F)ccc2cc(N)cc(-c3nc4c5c(nc(OC[C@@]67CCCN6C[C@H](F)C7)nc5c3F)N3[C@@H](CC)CCOC[C@H]3CO4)c12` [Compound 65], the results for the IC50 in experiment [1] and in experiment [2] were 2.08 nM and 0.601 nM, respectively.
`C#Cc1c(F)ccc2cc(N)cc(-c3c(Cl)c4c5c(nc(OC[C@@]67CCCN6C[C@H](F)C7)nc5c3F)N3CCCOC[C@H]3CO4)c12` [Compound 11]: the 50% inhibitory concentration (IC50) amounted to 3.49 nM in experiment [1] and 2.62 nM in experiment [2].
Taken in the same sequence, the figures for `C#Cc1c(F)ccc2cc(N)cc(-c3nc4c5c(nc(OCC67CCCN6CC(F)C7)nc5c3F)N3CCC5CC5C(F)C3N4C)c12` (stereo not shown) [Compound 116] were 6.76 nM and 3.55 nM.
Taken in the same sequence, the figures for `C#Cc1c(F)ccc2cc(N)cc(-c3nc4c5c(nc(OC[C@@]67CCCN6C[C@H](F)C7)nc5c3F)N3CC(F)(F)CCC3N4C)c12` (stereo partly shown) [Compound 53] were 6.82 nM and 7.14 nM.
Taken in the same sequence, the figures for `C#Cc1c(F)ccc2cc(N)cc(-c3nc4c5c(nc(OC[C@@]67CCCN6C[C@H](F)C7)nc5c3F)N3C5CC5COC[C@H]3CO4)c12` (stereo partly shown) [Compound 35] were 3.53 nM and 2.78 nM.
Regarding `N#Cc1c(N)sc2c(F)ccc(-c3cc4c5c(nc(OC[C@@]67CCCN6C[C@H](F)C7)nc5c3F)N3CCCOC[C@H]3CO4)c12` [Compound 161], the IC50 in experiment [1] is 1.77 nM; in experiment [2] it was 0.901 nM.
Taken in the same sequence, the figures for `C#Cc1c(F)ccc2cc(N)cc(-c3nc4c5c(nc(OCC6(CN(C)C)CC6(F)F)nc5c3F)N3CCCOC[C@H]3N4C)c12` (stereo partly shown) [Compound 4] were 2.58 nM and 2.04 nM.
Take `C#Cc1c(F)ccc2cc(N)cc(-c3nc4c5c(nc(OC[C@@]67CCCN6C[C@H](F)C7)nc5c3F)N3CCC=CC[C@H]3CO4)c12` [Compound 37]: the IC50 was 0.867 nM in experiment [1] and 0.535 nM in experiment [2].
As for `C#Cc1c(F)ccc2cc(N)cc(-c3nc4c5c(nc(OC[C@@]67CCCN6C[C@H](F)C7)nc5c3F)N3C(C5CCCO5)CCOCC3N4C)c12` (stereo partly shown) [Compound 100], the IC50 turned out to be 9.91 nM in experiment [1] and 3.78 nM in experiment [2].
Taken in the same sequence, the figures for `C#Cc1c(F)c(F)cc2cc(N)cc(-c3nc4c5c(nc(OC[C@@]67CCCN6CC(=C)C7)nc5c3F)N3CCCOC[C@H]3CO4)c12` [Compound 34] were 1.31 nM and 0.798 nM.
`C#Cc1c(F)ccc2cc(N)cc(-c3nc4c5c(nc(OC[C@@]67CCCN6C[C@H](F)C7)nc5c3F)N3CC(=C)COC[C@H]3N4C)c12` [Compound 138]: the IC50 in experiment [1] amounted to 2.51 nM; in experiment [2], 1.52 nM.
Regarding `C#Cc1c(F)ccc2cc(N)cc(-c3nc4c5c(nc(OC(C)[C@@]67CCCN6C[C@H](F)C7)nc5c3F)N3CCCOCC3N4C)c12` (stereo partly shown) [Compound 150], the results for the IC50 in experiment [1] and in experiment [2] were 8.27 nM and 7.35 nM, respectively.
Taken in the same sequence, the figures for `C#Cc1c(F)ccc2cc(N)cc(-c3nc4c5c(nc(OCC6(CN7CC8CC8C7)CC6)nc5c3F)N3CCCOCC3N4C)c12` (stereo not shown) [Compound 117] were 5.88 nM and 3.37 nM.
Taken in the same sequence, the figures for `C#Cc1c(F)ccc2cc(N)cc(-c3nc4c5c(nc(OC[C@@]67CCCN6C[C@H](F)C7)nc5c3F)N3CCCC[C@@H](F)C3N4C)c12` (stereo partly shown) [Compound 49] were 2.1 nM and 3.38 nM.
Consider `C#Cc1c(F)ccc2cc(N)cc(-c3nc4c5c(nc(OCC67CCCN6CC6(C7)CC6(F)F)nc5c3F)N3CCCOC[C@H]3CO4)c12` (stereo partly shown) [Compound 25], for which the concentration for half-maximal inhibition (IC50) in experiment [1] came to 2.58 nM; in experiment [2], 2.97 nM.
On to `CN1c2nc(-c3ccc(F)c4sc(N)c(C#N)c34)c(F)c3nc(OC[C@@]45CCCN4C[C@H](F)C5)nc(c23)N2CCCOC[C@@H]12` [Compound 75], for which the IC50 was 5.62 nM in experiment [1] and 4 nM in experiment [2].
For `C#Cc1c(F)ccc2cc(N)cc(-c3nc4c5c(nc(OC[C@@]67CCCN6C[C@H](F)C7)nc5c3F)N3CC(C)COCC3N4C)c12` (stereo partly shown) [Compound 46], the IC50 in experiment [1] is 3.28 nM; in experiment [2], 1.97 nM.
Taken in the same sequence, the figures for `C#Cc1c(F)ccc2cc(N)cc(-c3nc4c5c(nc(OCC6(CN7CCOCC7)CC6(F)F)nc5c3F)N3CCCOC[C@H]3N4C)c12` (stereo partly shown) [Compound 165] were 10.4 nM and 9.27 nM.
With `C#Cc1c(F)ccc2cc(N)cc(-c3nc4c5c(nc(OCC6(CN7CC[C@@H](F)C7)CC6)nc5c3F)N3CCCOCC3N4C)c12` (stereo partly shown) [Compound 82], the half-inhibitory concentration (IC50) came out at 3.63 nM in experiment [1] and 11.6 nM in experiment [2].
Regarding `C#Cc1c(F)ccc2cc(N)cc(-c3nc4c5c(nc(OCC67CC(=C)CN6CC(=C)C7)nc5c3F)N3CCCOC[C@H]3CO4)c12` [Compound 3], the IC50 in experiment [1] is 2.95 nM; in experiment [2] it was 1.88 nM.
Taken in the same sequence, the figures for `C#Cc1c(F)ccc2cc(N)cc(-c3nc4c5c(nc(OC[C@@]67CCCN6C[C@H](F)C7)nc5c3F)N3CCCCC(C#N)C3N4C)c12` (stereo partly shown) [Compound 101] were 8.39 nM and 5.64 nM.
Taken in the same sequence, the figures for `N#Cc1c(N)sc2c(F)ccc(-c3c(C4CC4)c4c5c(nc(OC[C@@]67CCCN6C[C@H](F)C7)nc5c3F)N3CCCOC[C@H]3CO4)c12` [Compound 132] were 3.39 nM and 3.01 nM.
